The list shows a part of the results. These are further read-outs of the screen, such as a control signal, another cell line or another target. No call is given for them.

Drawing on PubChem BioAssay AID1745853 (National Center for Advancing Translational Sciences (NCATS), 2022), this text covers activity change, negative = inhibition for 28 molecules.

Holding throughout (assay): Primary Screen for Target Class Profiling of Small Molecule Inhibitors of Methyltransferases
Experiment [1] concerns the target Glycine N-methyltransferase (Homo sapiens) (UniProt Q14749). The following applies: purified enzyme, MTase-Glo SAH luminescence; measured here: GNMT inhibition; at 40 µM; stronger effect = lower value. An outline of the steps: (§1)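 Each enzyme was reacted with SAM and its substrate, with compounds tested once at 40 uM; SAH formed was read by MTase-Glo luminescence.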
The target in experiment [2] is Guanidinoacetate N-methyltransferase (Homo sapiens) (UniProt Q14353). The conditions noted are these: purified enzyme, MTase-Glo SAH luminescence; measured here: GAMT inhibition; at 40 µM; stronger effect = lower value. An outline of the steps: as §1
For experiment [3], the target named is Histamine N-methyltransferase (Homo sapiens) (UniProt P50135). The following applies: purified enzyme, MTase-Glo SAH luminescence; measured here: HNMT inhibition; at 40 µM; stronger effect = lower value. An outline of the steps: as §1
Experiment [4] has as its target Nicotinamide N-methyltransferase (Homo sapiens) (UniProt P40261). The conditions noted are these: purified enzyme, MTase-Glo SAH luminescence; measured here: NNMT inhibition; at 40 µM; stronger effect = lower value. The essentials:
as §1

Experiment [5] addresses Phenylethanolamine N-methyltransferase (Homo sapiens) (UniProt P11086). The following applies: purified enzyme, MTase-Glo SAH luminescence; measured here: PNMT inhibition; at 40 µM; stronger effect = lower value. The essentials: as §1
On the % scale 0 is the no-effect control and ±100 the full control effect.

`CCCC1c2cccn2CCN1C(=O)Nc1ccc(OCC)cc1` (stereo not given): the activity change, negative = inhibition in experiment [1] was 1.59%; in experiment [2] it was 1.78%; in experiment [3] it was -2.35%; in experiment [4] it was 5.14%; in experiment [5], 9.46%.
With `CCOc1cccc(CNC(=O)c2nnn3c2COC(c2ccc(C)cc2)C3)c1` (stereo not given), the activity change, negative = inhibition in experiment [1] was -6.6%; in experiment [2], -4.66%; in experiment [3], -4.67%; in experiment [4], -5.02%; in experiment [5], -4.09%.
Turning to `c1ccc(Cn2cc(CN3CCN(c4ccncc4)CC3)c(-c3cc4ccccc4o3)n2)cc1`, the activity change, negative = inhibition in experiment [1] is -11%; in experiment [2], 1.25%; in experiment [3], -56.3%; in experiment [4] it was -15.8%; in experiment [5] it was 6.04%.
In the case of `COCCc1noc(C2Cc3ccccc3N2C(=O)Nc2ccc3c(c2)OCCO3)n1` (stereo not given), the activity change, negative = inhibition in experiment [1] is -6.51%; in experiment [2] it was -6.14%; in experiment [3] it was -2.67%; in experiment [4], -7.83%; in experiment [5] it was -6.92%.
`Fc1cccc(-c2nnn3c2nc(NCc2ccc4c(c2)OCO4)c2cc(Cl)ccc23)c1`: the activity change, negative = inhibition in experiment [1] was -2.31%; in experiment [2], 4.96%; in experiment [3], -0.338%; in experiment [4] it was -1.97%; in experiment [5], -0.844%.
The matching figures for `Cn1nnc(-c2ccc(-c3ccc(N4C[C@H](COP(=O)(O)O)OC4=O)cc3F)cn2)n1`: -20.4%, 7.01%, -1.24%, -15.2% and -8%.
For `COCCNC(=O)C[C@@H]1C[C@H]2O[C@H](CNCc3cccnc3OC)[C@@H](O)[C@H]2O1`, the activity change, negative = inhibition was -5.89% in experiment [1]; -12.3% in experiment [2]; -3.5% in experiment [3]; -12.6% in experiment [4]; -12.2% in experiment [5].
For `CC1CCCC(NC(=O)C2(C)Cn3c(nc4ccccc43)C(=O)N2Cc2cccs2)C1C` (stereo not given), the activity change, negative = inhibition in experiment [1] came to 4.16%; in experiment [2], 3.64%; in experiment [3], 7.85%; in experiment [4], 3%; in experiment [5], 3.31%.
In the case of `Cc1ccccc1NC(=O)Nc1ccc(CN2C(=O)N([C@@H](CC(C)C)C(=O)N[C@@H](CC(=O)O)c3ccccc3)C(=O)C2(C)C)cc1`, the activity change, negative = inhibition was 0.128% in experiment [1]; 5.38% in experiment [2]; 1.66% in experiment [3]; -12.2% in experiment [4]; -2.31% in experiment [5].
In the case of `N#CCn1ccn2nc3c(c2c1=O)CCCC3`, the activity change, negative = inhibition was -10% in experiment [1]; -9.43% in experiment [2]; -5.64% in experiment [3]; -17.2% in experiment [4]; 4.42% in experiment [5].
As to `Cc1ccc(CNC(=O)CCn2ccc3cc(S(=O)(=O)N4CCCC4)ccc32)cc1`, the activity change, negative = inhibition was -3.14% in experiment [1]; 2.74% in experiment [2]; 1.59% in experiment [3]; -8.2% in experiment [4]; -1.04% in experiment [5].
`Cc1ccc(NC(=O)N2CCn3cccc3C2C(C)C)cc1F` (stereo not given): the activity change, negative = inhibition was 6.87% in experiment [1]; 0.366% in experiment [2]; 3.14% in experiment [3]; 0.75% in experiment [4]; 5.38% in experiment [5].
As to `COc1ccc(O[C@H]2COCCN(S(=O)(=O)c3ccc(OC)cc3)C2)cc1`, the activity change, negative = inhibition in experiment [1] was -9.22%; in experiment [2] it was -7.25%; in experiment [3], -3.16%; in experiment [4] it was -11.5%; in experiment [5], -5.27%.
The matching figures for `CC(C)Cn1c(=O)c2ccc(C(=O)NC3CCCCC3)cc2n2c(=O)n(CC(N)=O)nc12`: 5.75%, 0%, 9.48%, -2.79% and 4.6%.
Regarding `C=C1CC[C@@]2(OC1)O[C@H]1CC3C4CC=C5C[C@@H](O[C@@H]6O[C@@H](C)[C@H](O)[C@@H](O)[C@H]6O)C[C@@H](O[C@@H]6O[C@H](C)[C@H](O)[C@H](O)[C@H]6O[C@@H]6O[C@@H](C)[C@H](O)[C@@H](O)[C@H]6O)[C@]5(C)C4CC[C@]3(C)[C@H]1[C@@H]2C` (stereo not given in full), the activity change, negative = inhibition in experiment [1] is 0%; in experiment [2] it was 16.2%; in experiment [3] it was -0.922%; in experiment [4] it was 5.44%; in experiment [5], 9.29%.
For the molecule `CC1CCC(NC(=O)CCCc2nnc3n4nc(-c5ccccc5)nc4c4ccccc4n23)CC1` (stereo not given), the activity change, negative = inhibition in experiment [1] was -0.794%; in experiment [2], 0%; in experiment [3] it was 6.34%; in experiment [4], -1.62%; in experiment [5], -2.59%.
Regarding `N#Cc1ccc(C(=O)N2CCC(Cc3nc(-c4cccnc4)n[nH]3)C2)cc1` (stereo not given), the activity change, negative = inhibition in experiment [1] was -4.73%; in experiment [2], -0.24%; in experiment [3], -1.74%; in experiment [4] it was -12.1%; in experiment [5], -1.1%.
Consider `COc1ccc(CNC(=O)CCc2nnc3n(Cc4ccc(Cl)cc4)c(=O)c4ccccc4n23)cc1`, for which the activity change, negative = inhibition in experiment [1] was -5.1%; in experiment [2], 0%; in experiment [3], 8.85%; in experiment [4], 8%; in experiment [5], 0.513%.
For `Cn1ccnc1-c1ccc(N2CC[C@@]3(O)CCN(S(C)(=O)=O)C[C@H]3C2)nn1`, the activity change, negative = inhibition in experiment [1] is -1.26%; in experiment [2], -4.3%; in experiment [3], -3.19%; in experiment [4] it was -9.68%; in experiment [5], -10.1%.
The matching figures for `CCC(C)C(N)C(=O)NCCN1CCOCC1` (stereo not given): -4.44%, -6.08%, 9.06%, -9.35% and 2.02%.
As for `CC(C)Cn1c(=O)c2ccccc2n2c(SCC(=O)NC3CCCCC3)nnc12`, the activity change, negative = inhibition in experiment [1] was -5%; in experiment [2], -8.18%; in experiment [3] it was 5.14%; in experiment [4], -7.18%; in experiment [5] it was -6%.
On to `COc1ccccc1CN1C(=O)c2ccc(-c3ccco3)n2CC1(C)C(=O)NC1CCC(C)CC1` (stereo not given), for which the activity change, negative = inhibition in experiment [1] is 3.3%; in experiment [2], 1.73%; in experiment [3], 7.13%; in experiment [4], 2.67%; in experiment [5], 2.7%.
Take `CC(C)CCNC(=O)N1CCn2cccc2C1C(C)C` (stereo not given): the activity change, negative = inhibition in experiment [1] was 0.196%; in experiment [2], 4.87%; in experiment [3] it was -6.29%; in experiment [4], -4.4%; in experiment [5] it was 0.065%.
Consider `CCc1ccccc1NC(=O)N1CCC(Oc2ncccc2NC)C1` (stereo not given), for which the activity change, negative = inhibition in experiment [1] was -2.49%; in experiment [2], 0.03%; in experiment [3], -1.34%; in experiment [4], -3.84%; in experiment [5], 0.592%.
Take `Cc1cnc(CCNS(=O)(=O)c2cn(C)cn2)n1C1CCC1`: the activity change, negative = inhibition in experiment [1] is -3.03%; in experiment [2], -3.16%; in experiment [3] it was -0.032%; in experiment [4] it was -4.28%; in experiment [5], 0.617%.
Regarding `CCC(=O)N1CCc2cc(OC)c(O)cc2C1`, the activity change, negative = inhibition in experiment [1] is -1.65%; in experiment [2], -1.17%; in experiment [3], -5.43%; in experiment [4], -14.9%; in experiment [5], -7.17%.
The corresponding values for `O=C(NC1CCN(c2nnc3ccccn23)CC1)c1ccc(Cl)s1` are -8.67%, 0.206%, -1.82%, -5.5% and 11.4%.
For `COc1cccc2c1[C@@H]1CN(CCCCn3c(=O)[nH]c4c(sc5ncc(-c6ccccc6)nc54)c3=O)C[C@@H]1CO2`, the activity change, negative = inhibition in experiment [1] was -2.58%; in experiment [2] it was 0.686%; in experiment [3] it was -2.63%; in experiment [4], -5.8%; in experiment [5], 6.31%.
